{
  "source": "the supplement of paper PMC8728848",
  "test_in_all_cases": "glycan array binding signal (z-score within array); higher = stronger binding",
  "settings_in_all_cases": "glycan notation: IUPAC condensed, linker removed",
  "key": {"[1]": {"molecular_target": "Gal(b1-4)GlcNAc(b1-3)Gal(b1-4)GlcNAc(b1-3)Gal(b1-4)GlcNAc", "how_it_was_run": "(§1)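 Negative Z-scores can be read as non-binding. The Z-score is calculated within each array and then averaged across arrays of one protein sequence at different concentrations or buffers and across linkers. Arrays, 3228 in all, were curated from the Consortium for Functional Glycomics database and kept only where the protein sequence was available.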"}, "[2]": {"molecular_target": "Gal(b1-4)GlcNAc(b1-3)Gal(b1-4)[Fuc(a1-3)]GlcNAc(b1-3)Gal(b1-4)[Fuc(a1-3)]GlcNAc", "how_it_was_run": "as §1"}, "[3]": {"molecular_target": "Gal(b1-4)GlcNAc(b1-3)GalNAc", "how_it_was_run": "as §1"}, "[4]": {"molecular_target": "Gal(b1-4)GlcNAc(b1-3)[Gal(b1-4)GlcNAc(b1-6)]Gal(b1-4)GlcNAc", "how_it_was_run": "as §1"}, "[5]": {"molecular_target": "Gal(b1-4)GlcNAc(b1-3)[GlcNAc(b1-6)]Gal(b1-4)GlcNAc", "how_it_was_run": "as §1"}, "[6]": {"molecular_target": "Gal(b1-4)GlcNAc(b1-6)Gal(b1-4)GlcNAc", "how_it_was_run": "as §1"}, "[7]": {"molecular_target": "Gal(b1-4)GlcNAc(b1-6)Gal(b1-4)GlcNAc(b1-6)GalNAc", "how_it_was_run": "as §1"}, "[8]": {"molecular_target": "Gal(b1-4)GlcNAc(b1-6)GalNAc", "how_it_was_run": "as §1"}, "[9]": {"molecular_target": "Gal(b1-4)GlcNAc(b1-6)[Gal(b1-3)]GalNAc", "how_it_was_run": "as §1"}, "Gal3S(b1-3)GalNAc": {"molecular_target": "Gal3S(b1-3)GalNAc", "how_it_was_run": "as §1"}, "Gal3S(b1-3)GlcNAc": {"molecular_target": "Gal3S(b1-3)GlcNAc", "how_it_was_run": "as §1"}, "[10]": {"molecular_target": "Gal3S(b1-3)[Fuc(a1-4)]GlcNAc", "how_it_was_run": "as §1"}, "Gal3S(b1-4)Glc": {"molecular_target": "Gal3S(b1-4)Glc", "how_it_was_run": "as §1"}, "Gal3S(b1-4)Glc6S": {"molecular_target": "Gal3S(b1-4)Glc6S", "how_it_was_run": "as §1"}, "Gal3S(b1-4)GlcNAc": {"molecular_target": "Gal3S(b1-4)GlcNAc", "how_it_was_run": "as §1"}, "Gal3S(b1-4)GlcNAc6S": {"molecular_target": "Gal3S(b1-4)GlcNAc6S", "how_it_was_run": "as §1"}, "[11]": {"molecular_target": "Gal3S(b1-4)[Fuc(a1-3)]Glc", "how_it_was_run": "as §1"}, "Gal3S4S(b1-4)GlcNAc": {"molecular_target": "Gal3S4S(b1-4)GlcNAc", "how_it_was_run": "as §1"}, "Gal3S6S(b1-4)GlcNAc": {"molecular_target": "Gal3S6S(b1-4)GlcNAc", "how_it_was_run": "as §1"}, "Gal3S6S(b1-4)GlcNAc6S": {"molecular_target": "Gal3S6S(b1-4)GlcNAc6S", "how_it_was_run": "as §1"}, "Gal4S(b1-4)GlcNAc": {"molecular_target": "Gal4S(b1-4)GlcNAc", "how_it_was_run": "as §1"}, "Gal4S6S(b1-4)GlcNAc": {"molecular_target": "Gal4S6S(b1-4)GlcNAc", "how_it_was_run": "as §1"}, "Gal6S(b1-4)Glc": {"molecular_target": "Gal6S(b1-4)Glc", "how_it_was_run": "as §1"}, "Gal6S(b1-4)Glc6S": {"molecular_target": "Gal6S(b1-4)Glc6S", "how_it_was_run": "as §1"}, "Gal6S(b1-4)GlcNAc": {"molecular_target": "Gal6S(b1-4)GlcNAc", "how_it_was_run": "as §1"}, "Gal6S(b1-4)GlcNAc6S": {"molecular_target": "Gal6S(b1-4)GlcNAc6S", "how_it_was_run": "as §1"}, "GalNAc(a1-3)Gal": {"molecular_target": "GalNAc(a1-3)Gal", "how_it_was_run": "as §1"}, "GalNAc(a1-3)GalNAc": {"molecular_target": "GalNAc(a1-3)GalNAc", "how_it_was_run": "as §1"}, "GalNAc(b1-3)Gal": {"molecular_target": "GalNAc(b1-3)Gal", "how_it_was_run": "as §1"}, "[12]": {"molecular_target": "GalNAc(b1-3)Gal(a1-4)Gal(b1-4)GlcNAc", "how_it_was_run": "as §1"}, "GalNAc(b1-3)GalNAc": {"molecular_target": "GalNAc(b1-3)GalNAc", "how_it_was_run": "as §1"}, "GalNAc(b1-4)GlcNAc": {"molecular_target": "GalNAc(b1-4)GlcNAc", "how_it_was_run": "as §1"}, "Glc(a1-4)Glc": {"molecular_target": "Glc(a1-4)Glc", "how_it_was_run": "as §1"}, "Glc(a1-6)Glc(a1-6)Glc": {"molecular_target": "Glc(a1-6)Glc(a1-6)Glc", "how_it_was_run": "as §1"}, "Glc(b1-4)Glc": {"molecular_target": "Glc(b1-4)Glc", "how_it_was_run": "as §1"}, "Glc(b1-6)Glc": {"molecular_target": "Glc(b1-6)Glc", "how_it_was_run": "as §1"}, "GlcA(b1-3)Gal": {"molecular_target": "GlcA(b1-3)Gal", "how_it_was_run": "as §1"}},
  "note": "The other results are listed elsewhere or left out.",
  "data": [
    {"binder": "SLR2P2A3 (Tachypleus tridentatus), TAL2_TACTR (protein) MEKGTPPTHDSDNWMGRAKKIGNGGWNQFQFLFFDPNGYLYAVSKDKLYKASPPQSDTDNWIARATEIGSGGWSGSKFLFFHPNGYLYAVHGQRLYKALPPVSNQD", "values": [
      {"measurement": "glycan array binding signal (z-score)", "setting": "[1]", "result": -0.476},
      {"measurement": "glycan array binding signal (z-score)", "setting": "[2]", "result": -0.362},
      {"measurement": "glycan array binding signal (z-score)", "setting": "[3]", "result": 0.121},
      {"measurement": "glycan array binding signal (z-score)", "setting": "[4]", "result": -0.244},
      {"measurement": "glycan array binding signal (z-score)", "setting": "[5]", "result": -0.364},
      {"measurement": "glycan array binding signal (z-score)", "setting": "[6]", "result": -0.159},
      {"measurement": "glycan array binding signal (z-score)", "setting": "[7]", "result": -0.529},
      {"measurement": "glycan array binding signal (z-score)", "setting": "[8]", "result": 3.21},
      {"measurement": "glycan array binding signal (z-score)", "setting": "[9]", "result": 0.245},
      {"measurement": "glycan array binding signal (z-score)", "setting": "Gal3S(b1-3)GalNAc", "result": -0.534},
      {"measurement": "glycan array binding signal (z-score)", "setting": "Gal3S(b1-3)GlcNAc", "result": -0.234},
      {"measurement": "glycan array binding signal (z-score)", "setting": "[10]", "result": 0.058},
      {"measurement": "glycan array binding signal (z-score)", "setting": "Gal3S(b1-4)Glc", "result": -0.109},
      {"measurement": "glycan array binding signal (z-score)", "setting": "Gal3S(b1-4)Glc6S", "result": 0.231},
      {"measurement": "glycan array binding signal (z-score)", "setting": "Gal3S(b1-4)GlcNAc", "result": -0.493},
      {"measurement": "glycan array binding signal (z-score)", "setting": "Gal3S(b1-4)GlcNAc6S", "result": -0.09},
      {"measurement": "glycan array binding signal (z-score)", "setting": "[11]", "result": 0.241},
      {"measurement": "glycan array binding signal (z-score)", "setting": "Gal3S4S(b1-4)GlcNAc", "result": -0.172},
      {"measurement": "glycan array binding signal (z-score)", "setting": "Gal3S6S(b1-4)GlcNAc", "result": -0.389},
      {"measurement": "glycan array binding signal (z-score)", "setting": "Gal3S6S(b1-4)GlcNAc6S", "result": -0.21},
      {"measurement": "glycan array binding signal (z-score)", "setting": "Gal4S(b1-4)GlcNAc", "result": -0.394},
      {"measurement": "glycan array binding signal (z-score)", "setting": "Gal4S6S(b1-4)GlcNAc", "result": -0.119},
      {"measurement": "glycan array binding signal (z-score)", "setting": "Gal6S(b1-4)Glc", "result": -0.187},
      {"measurement": "glycan array binding signal (z-score)", "setting": "Gal6S(b1-4)Glc6S", "result": 0.197},
      {"measurement": "glycan array binding signal (z-score)", "setting": "Gal6S(b1-4)GlcNAc", "result": -0.167},
      {"measurement": "glycan array binding signal (z-score)", "setting": "Gal6S(b1-4)GlcNAc6S", "result": 0.845},
      {"measurement": "glycan array binding signal (z-score)", "setting": "GalNAc(a1-3)Gal", "result": 6.13},
      {"measurement": "glycan array binding signal (z-score)", "setting": "GalNAc(a1-3)GalNAc", "result": 3.69},
      {"measurement": "glycan array binding signal (z-score)", "setting": "GalNAc(b1-3)Gal", "result": -0.208},
      {"measurement": "glycan array binding signal (z-score)", "setting": "[12]", "result": -0.055},
      {"measurement": "glycan array binding signal (z-score)", "setting": "GalNAc(b1-3)GalNAc", "result": -0.248},
      {"measurement": "glycan array binding signal (z-score)", "setting": "GalNAc(b1-4)GlcNAc", "result": -0.025},
      {"measurement": "glycan array binding signal (z-score)", "setting": "Glc(a1-4)Glc", "result": 0.209},
      {"measurement": "glycan array binding signal (z-score)", "setting": "Glc(a1-6)Glc(a1-6)Glc", "result": -0.114},
      {"measurement": "glycan array binding signal (z-score)", "setting": "Glc(b1-4)Glc", "result": 0.132},
      {"measurement": "glycan array binding signal (z-score)", "setting": "Glc(b1-6)Glc", "result": 0.523},
      {"measurement": "glycan array binding signal (z-score)", "setting": "GlcA(b1-3)Gal", "result": -0.185}
    ]}
  ]
}
